Measured values taken from PubChem BioAssay AID686979 (National Center for Advancing Translational Sciences (NCATS), 2013).
Values joined by “and” are separate entries in the source; they are usually repeats but may differ in a detail not shown here. Equal entries are not always repeated. Screen size: about 420,000 compounds; about 50,000 (12%) were called active. This list was built around the results that the source calls inconclusive (neither active nor inactive); the mix of calls is not that of the screen. Calls follow the shape of the dose curve; as a rule, active = well fitted inhibition curve with a large enough effect; inconclusive = small, poorly fitted or top-dose-only effect; inactive = flat fitted curve, though single readings scatter. Where the call is inconclusive, the potency comes from a doubtful curve fit.

assay: qHTS for Inhibitors of human tyrosyl-DNA phosphodiesterase 1 (TDP1): qHTS in cells in presence of CPT; settings: chicken DT40 Tdp1-/-;hTDP1 cells + 20 nM CPT, ATP luminescence, 48 h; activity change, negative = growth inhibition: at 46.2 µM (top of the series) unless noted; also: nearly all actives have a fitted effect of over 55% in size
Summary of the method: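 Chicken DT40 Tdp1-/- cells stably complemented with human TDP1 were seeded at 400 cells/well in medium containing 20 nM camptothecin, exposed to pin-transferred compounds, and grown at 37 °C for at least 48 hr. Viability was read as ATP luminescence.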
% is scaled to controls: 0 for no effect and ±100 for the full control effect; potency is read from the fitted curve at half-maximal effect; tags tell the direction and shape of the fitted curve.

| SMILES | Potency | activity change, negative = growth inhibition |
| --- | --- | --- |
| CCN(CC)S(=O)(=O)c1cccc(-c2cn3cccnc3n2)c1 | inactive | – |
| CN(C)S(=O)(=O)c1ccc(C(=O)Nc2ccnn2C2CCCCC2)cc1 | inconclusive: 20.6 µM [inhibitor, partial curve] | – |
| CCn1cc(C(=O)NCc2ccc(C)cc2)c(=O)c2cc(S(=O)(=O)N3CCCCCC3)ccc21 | active: 14.6 µM | – |
| COc1ccc(NC(=O)C2CCN(c3nc(C)nc4c3CCC4)CC2)cc1 | active: 11.6 µM | – |
| Cc1nc(Cc2nnc(SCc3nc(N)nc(Nc4ccccc4C)n3)o2)cs1 | inactive | – |
| C#CCOCCOCCOCCNc1nc(N2CCN(C(=O)[C@H](Cc3cc4ccccc4[nH]3)n3cc([C@@H](N)CC(C)C)nn3)CC2)nc(N2CCN(C(=O)[C@H](Cc3cc4ccccc4[nH]3)n3cc([C@@H](N)CC(C)C)nn3)CC2)n1 | inconclusive: 29.1 µM [inhibitor, single point] | – |
| COc1cc2c(cc1OC)C(NC(=O)c1ccc(C)cc1)CC2=O (stereo unspecified) | inactive | – |
| COc1ccccc1CNC(=O)c1ccc2nc(-c3ccccc3)c(-c3ccccc3)nc2c1 | inconclusive: 25.9 µM [inhibitor, single point] | – |
| COc1cc(/C=C2\SC(=S)N(CC(=O)NC(C)(C)C)C2=O)cc(OC)c1OC | inconclusive: 16.4 µM [inhibitor, single point] | – |
| Cc1cccc(N2CCN(C(=O)c3cccc(S(=O)(=O)N4CCCCC4)c3)CC2)c1C | inconclusive: 20.6 µM [inhibitor, single point] | – |
| Cc1ccc(S(=O)(=O)N(C(=O)c2ccncc2)c2ccc(OC(=O)c3ccncc3)c3ccccc23)c(C)c1 | active: 4.61 µM | – |
| C/C=C/C=N/NC(=O)c1ccncc1 | inconclusive: 29.9 µM [inhibitor, single point] | – |
| CCOc1ccc(NC(=O)C2CCCN(S(=O)(=O)c3c(C)nn(C)c3C)C2)cc1 (stereo unspecified) | inconclusive: 11.6 µM [inhibitor, partial curve, poor fit] | – |
| Cc1ccc(C#N)c(SCc2ccccc2F)n1 | inactive | – |
| O=C(CN1CCSCC1)N/N=C/c1ccc(F)c(F)c1 | – | inconclusive: -31.2% [inhibitor] |
| Cc1ccc(OCCNC(=O)c2ccc3ccccc3n2)cc1 | inconclusive: 32.6 µM [inhibitor, partial curve, poor fit] | – |
| CCOC(=O)Cn1c(=O)c2c(nc(Br)n2CC(=O)OCC)n(C)c1=O | inactive | – |
| COCCN(CC1CCCN(C2Cc3ccccc3C2)C1)C(=O)CCC(N)=O (stereo unspecified) | inactive | – |
| Cc1nn(C)c2c1c(C(F)(F)F)cc(=O)n2Cc1cccc(Br)c1 | inactive | – |
| CC(C)CCn1c(=O)c2ccccc2c2ccccc2c1=O | inactive | – |
| COCC(=O)N1CCC2(CCCN(Cc3ccc(C#N)cc3)C2)CC1 | inactive | – |
| CC(C)(C)OC(=O)NCCc1onc(-c2cccc([N+](=O)[O-])c2)c1C(=O)O | inactive | – |
| Cc1cccc(NS(=O)(=O)c2ccc(-n3cccn3)cc2)c1C | active: 13 µM | – |
| O=C(Nc1ccc(Cl)c(C(F)(F)F)c1)[C@@H]1CC=C[C@@H]2CCN(C3CCCCC3)C(=O)[C@@H]21 | inconclusive: 35.5 µM [inhibitor, single point] and inconclusive: 29.1 µM [inhibitor, single point] | – |

| SMILES | Potency | activity change, negative = growth inhibition |
| --- | --- | --- |
| Cc1ccc2c(c1)S/C(=C/c1ccc[n+](CCO)c1)N2C | active: 0.651 µM | – |
| COc1ccc(CNC(=O)c2[nH]c(C)c(C(C)=O)c2C)cc1 | active: 9.2 µM | – |
| O=C(Nc1nonc1NC(=O)C1CCCCC1)C1CCCCC1 | inactive | – |
| Cc1c(/C=N/NC(=O)COc2ccccc2[N+](=O)[O-])c2ccccc2n1C | inconclusive: 29.1 µM [inhibitor, single point] | – |
| Cc1cc(C)c2c(c1)/C(=c1/sc3n(c1=O)CN(c1ccccc1)CN=3)C(=O)N2 | active: 10.3 µM | – |
| CCOC(=O)N1CCN(C(=O)/C(=C/c2ccc(OC)c(OC)c2)NC(=O)c2ccccc2)CC1 | inactive | – |
| CCCCNc1nc2ccccc2[nH]1 | inconclusive: 1.64 µM [inhibitor, partial curve, poor fit] | – |
| Cn1cc(S(=O)(=O)N2CCCCCC2)cc1C(=O)NCc1ccccc1Cl | inconclusive: 16.4 µM [inhibitor, single point] | – |
| CN(C)c1ccnc2sc3c(=O)n(Cc4ccccc4)cnc3c12 | inconclusive: 7.31 µM [inhibitor, partial curve] | – |
| O=C(CC(CC(=O)c1ccccc1)c1ccccn1)c1ccccc1 | inconclusive: 18.4 µM [inhibitor, single point] | – |
| Cc1cc(-c2nnc3n2CCCCC3)c(C)n1-c1ccccc1 | inconclusive: 20.6 µM [inhibitor, single point] | – |
| Cc1c(OC(C)C(=O)NCc2cccnc2)ccc2c3c(c(=O)oc12)CCCC3 (stereo unspecified) | inconclusive: 18.4 µM [inhibitor, single point] | – |
| COc1ccc(NC(=O)C2CCCN(S(=O)(=O)c3ccc4c(c3)CCCN4C(C)=O)C2)cc1Cl (stereo unspecified) | active: 20.6 µM | – |
| Cc1cc2ccccc2n1CCNC(=O)C1CC1 | active: 14.6 µM | – |
| COc1ccc(NC(=O)CN(c2ccc(C(C)C)cc2)S(=O)(=O)c2c(C)noc2C)cc1OC | inconclusive: 3.26 µM [inhibitor, full curve] | – |
| COC(=O)c1sccc1NC(=S)N1CCN(c2ccc(F)cc2)CC1 | inconclusive: 16.4 µM [inhibitor, partial curve] | – |
| O=C(N/N=C/c1cccc(O)c1)c1cc(-c2ccc3c(c2)OCO3)n[nH]1 | active: 20.6 µM | – |
| COc1cccc(/C=N\NC(=O)c2cc(OCC(F)(F)F)ccc2OCC(F)(F)F)c1 | inconclusive: 29.1 µM [inhibitor, single point] | – |
| O=C(c1ccccc1)N1CCN(CC(O)COc2ccc(Br)cc2)CC1 (stereo unspecified) | inconclusive: 29.1 µM [inhibitor, single point] | – |
| Cc1ccccc1OCCC(=O)Nc1ccc2c(C)cc(=O)oc2c1 | inconclusive: 4.11 µM [inhibitor, full curve, poor fit] | – |
| O=C(Nc1nc2nccc(-c3ccccc3)n2n1)c1ccc(F)cc1 | inactive | – |
| CCc1ccc(C(=O)OCC(=O)Nc2c(C)n(C)n(-c3ccccc3)c2=O)cc1 | inactive | – |
| C1=C(c2ccccc2)Nc2ncnn2C1c1ccccc1 (stereo unspecified) | inactive | – |
| Cn1c(SCc2nnc(-c3ccc(F)cc3)o2)nnc1C1COc2ccccc2O1 (stereo unspecified) | inactive | – |

| SMILES | Potency | activity change, negative = growth inhibition |
| --- | --- | --- |
| COc1ccc(-n2nnnc2C(c2ccnc3ccccc23)N2CCN(C/C=C/c3ccccc3)CC2)cc1 (stereo unspecified) | active: 7.31 µM | – |
| O=C(Cn1nc2n(c1=O)-c1ccccc1SC2)N/N=C/c1cccs1 | inconclusive: 20.6 µM [inhibitor, partial curve] | – |
| N#CCCN(C(=O)COC(=O)C1CCN(c2ccc(C(F)(F)F)cn2)CC1)c1ccc(F)cc1 | inactive | – |
| O=C(CNC(=O)C(c1ccccc1)c1ccccc1)N/N=C/c1ccc(O)cc1O | active: 5.8 µM | – |
| Cc1ccc(S(=O)(=O)NC(CCc2ccccc2)CC(=O)C(C)(C)C)cc1 (stereo unspecified) | active: 23.1 µM | – |
| Clc1ccc(-c2csc(NNC3=NCCCCC3)n2)cc1 | inconclusive: 29.1 µM [inhibitor, single point] | – |
| Cc1ccc2c(C)[nH]c(=O)cc2c1 | active: 7.31 µM | – |
| COc1ccc(-c2nc3c4ccccc4[nH]c(=O)n3n2)cc1 | inconclusive: 29.1 µM [inhibitor, single point] | – |
| CCCCCOc1ccc(/C=C/C(=O)Nc2sc(C(C)=O)c(C)c2C(=O)OCC)cc1OC | inconclusive: 25.9 µM [inhibitor, single point] | – |
| CCCC(=O)NCC(c1ccc2c(c1)OCO2)N1CCN(c2ccccc2)CC1 (stereo unspecified) | inconclusive: 29.1 µM [inhibitor, single point] | – |
| O=C(CSc1cccc[n+]1[O-])c1ccc(-c2ccccc2)cc1 | active: 0.92 µM | – |
| COc1ccc(NS(=O)(=O)c2ccc(C(=O)NCC3(N4CCOCC4)CCCCC3)cc2)cc1 | inconclusive: 29.1 µM [inhibitor, single point] | – |
| Cc1c(Cl)cccc1-n1c(SCC(=O)NCc2ccccc2Cl)nnc1-c1ccncc1 | active: 14.1 µM | – |
| Nc1ncnc2c1ncn2[C@@H]1O[C@H](CNCc2ccc(OCC(=O)Nc3ccccn3)cc2)[C@@H](O)[C@H]1O | inconclusive: 18.4 µM [inhibitor, single point] | – |
| O=C1C=C(c2cccs2)CC(c2cccs2)C1n1cnc([N+](=O)[O-])c1 (stereo unspecified) | inconclusive: 29.1 µM [inhibitor, single point] | – |
| COc1ccccc1C(=O)NCCC(=O)N1CCN(C(=O)c2ccco2)CC1 | inactive | – |
| CCOC(=O)N1CCc2c(sc(NCc3ccc(OC)c(OC)c3OC)c2C(=O)Nc2ccc(OC)cc2OC)C1 | inconclusive: 11.6 µM [inhibitor, single point] | – |
| O=C(Cc1cccc2ccccc12)N1CCCc2ccccc21 | inconclusive: 29.1 µM [inhibitor, single point] | – |
| COc1ccc(-c2csc(NC(=O)CSc3nc4ccccc4c(=O)[nH]3)n2)cc1 | inconclusive: 20.6 µM [inhibitor, single point] | – |
| Brc1ccc(-c2c[n+]3c(n2-c2ccccc2)SCC3)cc1 | active: 5.8 µM | – |
| CN(C)c1ccc(C(=S)N2CCCC2)cc1Br | inconclusive: 29.1 µM [inhibitor, single point] | – |
| Cc1oc(C)c2c(=O)cc(-c3ccc4c(c3)OCO4)cc(OC(=O)c3ccccc3Cl)c12 | active: 23.1 µM | – |
| COc1ccccc1OCCNC(=O)CNC(=O)c1ccc(Cl)c(Cl)c1 | inconclusive: 29.1 µM [inhibitor, single point] | – |
